Assay results taken from the supplement of paper PMC12355420.
Counter-ions that a name gives are not always drawn. The list shows a part of the results. Most values come without repeats; read them as rough.

system: HeLa VPS33A reporter cells; assay: relative cell viability (CellMask signal) vs DMSO (fraction of DMSO); HeLa model of a glycosaminoglycan (GAG) storage disease; KI is knock-in and KO knock-out; SDC1 is syndecan 1; higher = less cytotoxic; conditions: 50 µM; 24 h
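Also: primary screen of an FDA-approved drug library in HeLa reporter cells in 96-well format, CellMask signal normalized to DMSO-treated wells set as 1, under 0.5 deemed highly cytotoxic.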

SMILES | relative cell viability
Cc1cc(Nc2cc(N3CCN(C)CC3)nc(Sc3ccc(NC(=O)C4CC4)cc3)n2)n[nH]1 [VX-680 (MK-0457,Tozasertib)] | 1.01
CC[C@@]1(O)C(=O)OCc2c1cc1n(c2=O)Cc2cc3cc(O)ccc3nc2-1 [10-Hydroxycamptothecin] | 1.12
NC(CO)C(=O)O (racemic) [DL-Serine] | 0.989
Cl.NCCCC[C@H](N)C(=O)O [L-Lysine hydrochloride] | 1.07
O=c1[nH]c(=O)n([C@H]2C[C@H](O)[C@@H](CO)O2)cc1C(F)(F)F [Triflurdine (Viroptic)] | 1.54
COc1ccc(CNc2nc(N3CCC[C@H]3CO)ncc2C(=O)NCc2ncccn2)cc1Cl [Avanafil] | 1.06
Nc1ncnc2c1ncn2[C@@H]1O[C@H](CO)[C@@H](O)[C@@H]1O [Vidarabine] | 0.983
CO[C@@]1(NC(=O)Cc2cccs2)C(=O)N2C(C(=O)O)=C(COC(N)=O)CS[C@@H]21 [Cefoxitin (sodium salt)] | 1.04
C[C@]12C[C@H](O)[C@H]3[C@@H](CCC4=CC(=O)CC[C@@]43C)[C@@H]1CC[C@@H]2C(=O)CO [Corticosterone] | 1.07
O=C1Cc2cc(CCN3CCN(c4nsc5ccccc45)CC3)c(Cl)cc2N1 [Ziprasidone] | 1.19
CCC(=O)NCC[C@@H]1CCc2ccc3c(c21)CCO3 [Ramelteon] | 1.13
CC(C)(C)NCC(O)c1cc(O)cc(O)c1 (stereo not drawn) [Terbutaline Sulfate] | 1.19
O=c1[nH]cnc2nc[nH]c12 [Hypoxanthine] | 1.07
